In PubChem BioAssay AID463173 (ICCB-Longwood Screening Facility, Harvard Medical School, 2010):
Out of some 52,000 compounds screened, about 1,700 (3.3%) were called active. No stated cut-off is given here; in the data, active means survival mostly below about 52% (no sharp cut-off); inactive means mostly above about 56%. The list shows a part of the results.

The compounds below were run on Wild type (assay: growth inhibition of S. aureus wild type versus tarO mutant, primary screen, teichoic acid synthesis inhibitors, RN4220, OD600 (AID 463173)). Settings: S. aureus RN4220 wild type/DeltatarO growth, OD600, 18 h, hits give low values, screened at 18.75 µg/mL (by protocol).

Row | Structure (SMILES) | survival
1 | CCN(Cc1ccccc1)c1ncnc2c1cnn2-c1ccc(F)cc1 | inactive: 55%
2 | CCOc1ccc(Nc2cc(C(=O)NCc3ccccc3Cl)c3ccccc3n2)cc1 | inactive: 92%
3 | Cc1cccc(NC(=O)Cn2c(=O)n(CCCCCC(=O)NCc3ccccc3)c(=O)c3sccc32)c1 | inactive: 72%
4 | CCOc1ccc(CNC(=O)C2CCN(C(=O)c3ccc(-n4ccc5ccccc54)s3)CC2)cc1 | inactive: 111%
5 | CCOC(=O)N1CCN(C(=O)c2ccc3c(c2)N(Cc2ccccc2F)C(=O)c2ccccc2S3(=O)=O)CC1 | inactive: 82%
6 | O=C(COc1ccccc1)NCC(c1ccc(Cl)cc1)N1CCCCC1 (stereo not drawn) | inactive: 85%
7 | N#Cc1ccc(N2CCCCC2)cc1 | inactive: 119%
8 | O=C(CCCc1ccccc1)NC1CC(=O)N(c2cccc(F)c2)C1 (stereo not drawn) | inactive: 128%
9 | Cc1ccc(C)c(N2CCN(S(=O)(=O)c3c(C(=O)N4CCC(C)CC4)c(C)n(C)c3C)CC2)c1 | inactive: 83%
10 | CN(C)N=Nc1ccc(-c2cn(Cc3ccccc3)cn2)cc1 | inactive: 100%
11 | Fc1ccc(C(c2nnnn2C2CCCC2)N2CCc3ccccc32)cc1 (stereo not drawn) | inactive: 122%
12 | CCc1ccc(NC(=O)CSc2nc3c(c(=O)[nH]2)CN(Cc2ccc4c(c2)OCO4)CC3)cc1 | inactive: 79%
13 | O=C(Nc1ccc(Br)c(Cl)c1)c1ccc(C(=O)Nc2ccc(Br)c(Cl)c2)cc1 | inactive: 130%
14 | CCOC(=O)c1cc2c(=O)n3ccccc3nc2n(C)c1=NC(=O)c1c(-c2c(F)cccc2Cl)noc1C | inactive: 142%
15 | CCCCCn1c(CCCNC(=O)c2ccc(Cl)cc2)nc2ccccc21 | inactive: 90%
16 | COC(=O)C1=C(C)N(C(C)C)C(=O)C1(NC(=O)c1ccccc1OC)C(F)(F)F (stereo not drawn) | inactive: 74%
17 | COc1ccccc1CNC(=O)C(=O)NCC(c1ccco1)S(=O)(=O)c1ccc(C)cc1 (stereo not drawn) | inactive: 72%
18 | COc1ccc(CNC(=O)CCc2nnc3n(C)c(=O)c4sccc4n23)cc1 | inactive: 147%
19 | COc1ccc(-c2nc(C(=O)Nc3cccc(C(C)=O)c3)nn2-c2ccccc2Cl)cc1 | inactive: 80%
20 | COc1ccc(N2CCN(C(=O)c3cc4c(=O)n(Cc5ccco5)ccc4nc3C)CC2)cc1 | inactive: 89%
21 | COCCCNC(=O)c1cc2c(-c3cccc(OC)c3)nn(C)c2s1 | inactive: 84%
22 | O=C(CSc1nccn1Cc1ccc(Cl)cc1)Nc1nc2ccccc2s1 | active: 0%

Row | Structure (SMILES) | survival
23 | CCC(=O)N1CCc2cc(Br)cc(S(=O)(=O)Nc3ccccc3C(=O)OC)c21 | inactive: 136%
24 | CCOc1cc(-c2nc(-c3ccc(-c4ccccc4)nc3OCC)no2)cc(OCC)c1OCC | inactive: 60%
25 | O=C(NCc1ccccc1Cl)c1ccccc1NC(=O)c1nsc2ccccc12 | inactive: 67%
26 | COc1cc(OC)c(NC(=O)c2cnn(-c3ccccc3)c2-n2cccc2)cc1Cl | inactive: 80%
27 | CCc1ccc(NC(=O)c2cc(S(=O)(=O)N3CCCC(C)C3)cn2C)cc1 (stereo not drawn) | inactive: 88%
28 | Cc1ccccc1CCNC(=O)c1ccc(Cn2c(=O)c3cccn3c3cccnc32)cc1 | inactive: 95%
29 | COc1cc(CN(C(=O)COc2ccc(F)cc2)c2ccccn2)cc(OC)c1OC | inactive: 85%
30 | CCOc1ccc(OCC(=O)Nc2ccc(S(=O)(=O)Nc3cc(C)on3)cc2)cc1 | inactive: 62%
31 | COc1cc(NC(=O)CCN2CCN(CCO)CC2)cc(OC)c1 | inactive: 139%
32 | COc1ccc(CCNC(=O)C2COc3ccccc3O2)cc1 (stereo not drawn) | inactive: 113%
33 | Cc1cc(OCC(=O)N(C)c2ccccc2)cc(C)c1Cl | inactive: 116%
34 | Cc1ccc(C)c(N2CCN(C(=O)c3cc(C)nc4c3c(C)nn4-c3ccccc3)CC2)c1 | inactive: 134%
35 | Cc1ccc(N2CC(C(=O)NC3CC3)CC2=O)cc1Cl (stereo not drawn) | inactive: 101%
36 | O=C(NC1CCCC1)C(c1ccncc1)N(Cc1ccco1)C(=O)Cn1nnc(-c2ccc(Cl)cc2)n1 (stereo not drawn) | inactive: 96%
37 | CCc1nn(CC(=O)NCCc2ccc(SC)cc2)c(=O)c2cc3sccc3n12 | inactive: 136%
38 | CCCc1cc(=O)n2[nH]c(NCc3c(F)cccc3Cl)nc2n1 | inactive: 88%
39 | COc1ccc(N2CCN(S(=O)(=O)c3ccc4c(c3)C(C(C)C)C(=O)N4)CC2)cc1 (stereo not drawn) | inactive: 140%
40 | Cc1nc2cc(-c3cccc(F)c3)nn2c(C)c1CCC(=O)NCCc1ccccc1 | inactive: 128%
41 | N#Cc1cn(-c2ccccc2)nc1-c1cccnc1 | inactive: 121%
42 | COC(=O)CSc1nnc(COc2cccc3ccccc23)o1 | inactive: 105%
43 | Cc1ccc(NC(=O)c2ccc(=O)n(CC(=O)Nc3ccccc3)n2)cc1 | inactive: 58%
44 | CCOC(=O)COc1ccc(-c2nnn(CC(=O)Nc3ccccc3)n2)cc1 | inactive: 105%

Row | Structure (SMILES) | survival
45 | Cn1c(=O)c2sccc2n2c(CCCC(=O)Nc3ccc(Oc4ccccc4)cc3)nnc12 | inactive: 75%
46 | Cc1sc2c(c1C)c(=O)n(CCc1ccccc1)c(=O)n2Cc1ccc(C(C)(C)C)cc1 | inactive: 85%
47 | Cc1ccc(C)c(NC(=O)C2CCN(S(=O)(=O)c3c(C)noc3/C=C/c3cccs3)CC2)c1 | inactive: 88%
48 | CCn1c(CNC(=O)c2ccc(OC)cc2)nnc1SCC(=O)Nc1cc(C)ccc1C | inactive: 118%
49 | Cn1c(/C(C#N)=C/c2ccccc2Br)nc2ccccc21 | inactive: 86%
50 | CCc1c(C)c2ccc(O)c(CN3CCN(c4ccc(F)cc4)CC3)c2oc1=O | inactive: 75%
51 | COc1ccccc1C(=O)NCc1nc2cccnc2n1Cc1ccc(F)cc1 | inactive: 67%
52 | CN1/C(=c2/sc(=C3C(=O)NC(=S)NC3=O)n(C)c2=O)Sc2ccccc21 | inactive: 104%
53 | CCc1cccc(NS(=O)(=O)c2ccc3c(c2)CC(C)N3C(=O)C2CC2)c1 (stereo not drawn) | inactive: 80%
54 | CCN=C1S/C(=C\c2cn(CC(=O)NCc3ccco3)c3ccccc23)C(=O)N1CC | inactive: 115%
55 | COc1ccc(S(=O)(=O)N2Cc3ccccc3CC2C(=O)Nc2cc(Cl)ccc2Cl)cc1 (stereo not drawn) | inactive: 78%
56 | COc1ccccc1OCc1ccc(C(=O)NCc2ccncc2)o1 | inactive: 116%
57 | COc1ccc(Cl)cc1NC(=O)CSc1nccn1-c1ccc(Cl)cc1 | inactive: 66%
58 | CCOCN(C(=O)Cn1c(COC)nc2ccccc21)c1c(C)cccc1CC | inactive: 111%
59 | N#CC(C#N)=Cc1cn(CCCOc2ccccc2Cl)c2ccccc12 | inactive: 97%
60 | COc1ccc(C(=O)NCCn2cc(SCc3ccc(C(F)(F)F)cc3)c3ccccc32)cc1OC | inactive: 96%
61 | COc1cccc(CNC(=O)C2CCCN(S(=O)(=O)N(C)c3ccc(F)cc3)C2)c1OC (stereo not drawn) | inactive: 88%
62 | Cc1cccc(NC(=O)CSC2=Nc3ccccc3C3=NC(CC(=O)NCc4cccs4)C(=O)N23)c1 (stereo not drawn) | inactive: 81%
63 | COc1ccccc1/C=C/c1nc(C#N)c(NC2CCCCC2)o1 | inactive: 113%
64 | COc1ccc(CNC(=O)CCCn2nc(C)n3c(cc4sccc43)c2=O)cc1 | inactive: 83%
65 | COCCn1c(C)cc(O)c(C(c2ccccc2OC)N2CCN(c3ccccc3)CC2)c1=O (stereo not drawn) | inactive: 74%
66 | O=C(Cc1ccccc1)Nc1cccnc1 | inactive: 116%

Row | Structure (SMILES) | survival
67 | CCOC(=O)c1cnc2ccc(Br)cc2c1NCCN1CCOCC1 | inactive: 68%
68 | Cc1ccc(NC(=O)CN2C=NS(=O)(=O)c3ccccc32)cc1 | inactive: 71%
69 | COc1ccc(-c2noc(CC(=O)N(C)c3cccc(C)c3)n2)cc1 | inactive: 83%
70 | CCOC(=O)COc1ccc(CC)cc1C(=O)c1ccn2nc(-c3ccc(F)cc3)cc2n1 | inactive: 75%
71 | O=C(Nc1ccc2c(c1)CCCN2C(=O)c1cccs1)c1ccc(F)c(F)c1 | inactive: 73%
72 | COc1ccc(C(=O)c2cn(Cc3ccccc3F)c3cc4c(cc3c2=O)OCCO4)cc1OC | inactive: 86%
73 | COc1ccc(NC(=O)CSc2oc(-c3cccs3)nc2S(=O)(=O)c2ccccc2)c(OC)c1 | inactive: 84%
74 | Cc1ccc(Cl)cc1N1CCN(C(=O)CCS(=O)(=O)c2cc(Br)cc3c2N(C(=O)C2CC2)CC3)CC1 | inactive: 80%
75 | Cc1ccc(N2CC(NC(=O)c3ccccc3C(F)(F)F)CC2=O)cc1C (stereo not drawn) | inactive: 47%
76 | COc1ccc(Cl)cc1S(=O)(=O)Nc1ccc2[nH]c(=O)[nH]c2c1 | inactive: 80%
77 | Clc1ccc2c(c1)-n1cc(-c3ccccc3)nc1CO2 | inactive: 72%
78 | CCc1ccc(S(=O)(=O)c2cn(Cc3ccccc3)c3cc(N4CCCC4)c(F)cc3c2=O)cc1 | inactive: 78%
79 | O=C(Nc1ccc(C(=O)OCc2cc(=O)n3nc(C4CC4)sc3n2)cc1)c1ccccc1 | inactive: 70%
80 | Cc1ccc(CCNC(=O)Cn2c(-c3cccs3)cc3ccccc32)cc1 | inactive: 119%
81 | Cc1cccc(CNC(=O)c2cc3cc(S(=O)(=O)N4CCCCC4)ccc3n2C)c1 | inactive: 76%
82 | Cc1ccc(-c2cc(C(=O)N3CCN(S(=O)(=O)c4ccc(Br)cc4)CC3)[nH]n2)c(C)c1 | inactive: 63%
83 | CC(C)OCCCn1c(=O)c2ccccc2n2c(-c3ccccc3)nnc12 | inactive: 113%
84 | CC(C)(C)C1CCc2c(sc(NC(=O)c3cccc(Cl)c3)c2C(=O)NCc2ccco2)C1 (stereo not drawn) | inactive: 119%
85 | CC(=O)c1ccc(NC(=O)C2CCN(c3nnc(C)c4c(C)n(-c5ccccc5)nc34)CC2)cc1 | inactive: 83%
86 | O=C(NC1CCCCC1)N1CCCC(c2nc(-c3ccc(Cl)cc3)no2)C1 (stereo not drawn) | inactive: 86%
87 | CCc1nn2c(=O)cc(COC(=O)Cc3ccccc3)nc2s1 | inactive: 59%
88 | O=C(Cc1ccccc1)Nc1sc2c(c1C(=O)Nc1cccc(Cl)c1)CCCCC2 | inactive: 91%
